# Data published in PubChem BioAssay AID1745853 (National Center for Advancing Translational Sciences (NCATS), 2022).
# The list shows a part of the results. Shown are side measurements of this screen, not its main read-out; they come without a call.
# Key:
# Assay in all cases: Primary Screen for Target Class Profiling of Small Molecule Inhibitors of Methyltransferases
# [1] = target: Glycine N-methyltransferase (Homo sapiens) (UniProt Q14749); settings: purified enzyme, MTase-Glo SAH luminescence; measured here: GNMT inhibition; at 40 µM; stronger effect = lower value
# Procedure, shortened: (§1)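 Each enzyme was reacted with SAM and its substrate, with compounds tested once at 40 uM; SAH formed was read by MTase-Glo luminescence.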
# [2] = target: Guanidinoacetate N-methyltransferase (Homo sapiens) (UniProt Q14353); settings: purified enzyme, MTase-Glo SAH luminescence; measured here: GAMT inhibition; at 40 µM; stronger effect = lower value
# Procedure, shortened: as §1
# [3] = target: Histamine N-methyltransferase (Homo sapiens) (UniProt P50135); settings: purified enzyme, MTase-Glo SAH luminescence; measured here: HNMT inhibition; at 40 µM; stronger effect = lower value
# Procedure, shortened: as §1
# [4] = target: Nicotinamide N-methyltransferase (Homo sapiens) (UniProt P40261); settings: purified enzyme, MTase-Glo SAH luminescence; measured here: NNMT inhibition; at 40 µM; stronger effect = lower value
# Procedure, shortened: as §1
# [5] = target: Phenylethanolamine N-methyltransferase (Homo sapiens) (UniProt P11086); settings: purified enzyme, MTase-Glo SAH luminescence; measured here: PNMT inhibition; at 40 µM; stronger effect = lower value
# Procedure, shortened: as §1
# % is set by controls: 0 for no effect and ±100 for the full control effect.
SMILES,"activity change, negative = inhibition [1] [%]","activity change, negative = inhibition [2] [%]","activity change, negative = inhibition [3] [%]","activity change, negative = inhibition [4] [%]","activity change, negative = inhibition [5] [%]"
COc1cccc(NS(=O)(=O)c2cc3[nH]c(=O)[nH]c3cc2Cl)c1,11.9,0,10.8,0.02,-3.32
COC(=O)C1=C(C)NC(C)=C(C(=O)OC(C)(C)CN(C)CCC(c2ccccc2)c2ccccc2)C1c1cccc([N+](=O)[O-])c1 (stereo not drawn),-8.34,3.5,-2.79,-8.84,3.07
C=C1C[C@]23C[C@H]1CC[C@H]2[C@@]12CC[C@H](O)[C@@](C)(C(=O)O1)[C@H]2[C@@H]3C(=O)O,3.58,6.44,14,-5.08,6.6
CC(=O)NC1(C)CCN(Cc2ccccc2-c2ccccc2Oc2ccccc2)C1 (stereo not drawn),-10.2,-10.5,-12.2,-28.4,-12.2
CC(C)(O)C(=O)N1CCN(c2ccc(C(F)(F)F)c(C3=C(c4c[nH]c5ccccc45)C(=O)NC3=O)c2)CC1,-61.5,-49.5,-55,-61.2,-61.9
COc1ccc(CNC(=O)C2(C)Cn3cnc(C(=O)Nc4ccc(Cl)cc4F)c3C(=O)N2C2CC2)cc1 (stereo not drawn),-14.6,4.71,-4.82,-7.06,-1.5
CCn1cnnc1CC1CCN(C(=O)c2[nH]nc3c2COc2ccccc2-3)CC1,-47.3,-5.07,-5,-14.6,-6.06
CC(=O)O[C@@H]1[C@H](O[C@@H]2O[C@H](CO)[C@@H](O)[C@H](O)[C@H]2O)[C@@H](O[C@@H]2O[C@@H](C)[C@H](O)[C@@H](O[C@@H]3O[C@H](CO)[C@@H](O)[C@H](O)[C@H]3O)[C@H]2O)[C@H](OC(=O)C23CCC4(C)C(=CCC5C6(C)CC(O)C(O[C@@H]7O[C@H](C(=O)O)[C@@H](O)[C@H](O)[C@H]7O)C(C)(C(=O)O)C6CCC54C)C2CC(C)(C)CC3O)O[C@@H]1C (stereo partly drawn),4.06,7.41,8.7,-4.39,8.49
O=C(Nc1cccnc1)c1cc(-c2ccnc(F)c2)ccc1OCc1ccccc1,-8.31,-10.7,-8.33,-27.6,-11.2
CN1CC(O)C(O)C(O)C1CO (stereo not drawn),4.49,12.1,5.83,0.387,10.7
COc1ccc2cc3n(c2c1)CC(C)(C(=O)NC1CCCCCC1)N(c1ccccc1F)C3=O (stereo not drawn),-1.2,0,-1.39,-8.06,-11.3
CC(C)Nc1ncc(C(=O)NC2CCCN(CCc3ccccc3)C2)cn1 (stereo not drawn),-2.75,4.54,-1.82,-5.73,-3.8
COc1cc(NC(=O)Cn2nc3n(Cc4ccc(F)cc4)c(=O)c4ccccc4n3c2=O)cc(OC)c1,0.895,4.31,8.55,2.79,1.25
CCCn1c(=O)c2ccc(C(=O)NC(C)C)cc2n2c(=O)n(CC(=O)Nc3cccc(CC)c3)nc12,1.32,-0.764,-3.94,-0.133,-4.1
COC(=O)c1ncn2c1C(=O)N(Cc1ccccc1)C(C)(C(=O)NC1CCCCCC1)C2 (stereo not drawn),1.51,3.6,-4.15,6.26,2.88
O=C(CC1CCCC1)N1CCC(Nc2cccnc2)C1 (stereo not drawn),-61.5,-44.9,-4.8,-15,-38.3
Cc1ccc(NC(=O)CSc2nnc3n(CCC(C)C)c(=O)c4ccccc4n23)c(C)c1,1.63,0.366,6.86,-12.7,3.34
Cc1ccc(CN2CC(Cn3c(C)cnc3-c3ccncc3)C2)o1,-4.16,3.89,-10.4,-6.34,16
O=c1[nH]c2cc(Br)c(S(=O)(=O)N3CCN(c4ccccc4F)CC3)cc2[nH]1,6.64,0,7.76,-4.14,-2.18

SMILES,"activity change, negative = inhibition [1] [%]","activity change, negative = inhibition [2] [%]","activity change, negative = inhibition [3] [%]","activity change, negative = inhibition [4] [%]","activity change, negative = inhibition [5] [%]"
COc1cccc(-c2nnnn2[C@H]2CO[C@H]3[C@@H]2OC[C@@H]3NC(=O)c2ccccc2)c1,-0.525,0.932,2.63,-2.72,-13
O=C(NCc1c[nH]c2ncccc12)c1cccnc1,-4.58,-4,-2.48,-6.75,-2.74
CC(=O)c1c(O)cc(O[C@@H]2O[C@H](CO)[C@@H](O)[C@H](O)[C@H]2O)cc1O,-0.107,-6.14,7.64,-16,3.48
Cc1cc2c(cc3n2CC(C)(C(=O)NC2CCCCCC2)N(c2ccccc2C)C3=O)o1 (stereo not drawn),5.09,0,7.74,8.49,4.24
CC1(C(=O)NC2CCCCCCC2)Cc2ccccc2C(=O)N1C1CCCC1 (stereo not drawn),-0.913,1.27,11.3,9.11,-0.509
CCCN1C(=O)c2c(C(=O)NCc3ccc(F)cc3)ncn2CC1(C)C(=O)NCc1ccc(OC)cc1 (stereo not drawn),-2.46,1.99,1.23,0.113,4.94
Cc1ccccc1C(=O)Nc1ccc2c(c1)C(=O)N(C)C1=NCCN12,-6.52,-2.19,4.37,-7.06,-9.17
C=C1C(=O)OC2/C=C(\CO)CC/C=C(\C=O)CC(OC(=O)CC(C)C)C12 (stereo not drawn),-0.156,-0.517,9.08,-11.5,7.81
Nc1n[nH]c(N)c1N=Nc1ccc(O)cc1,,-21.8,,-2.54,1.5
CCCC1c2cccn2CCN1C(=O)Nc1ccccc1Cl (stereo not drawn),1.94,1.96,-45,7.8,9.12
COc1cc(CCc2ccc(OCC=C(C)C)cc2)cc(OC)c1OC,3.76,7.98,9.4,-11.4,2.07
Cc1ccc2nc(NC(=O)Cn3nc4c(cc3=O)CCCCC4)sc2c1,-30.9,-8.94,-13.9,-14.9,-4.62
COc1ccc(-c2cc3n(n2)CC(C)(C(=O)NCc2ccccc2)N(Cc2cccc(OC)c2OC)C3=O)cc1 (stereo not drawn),9.03,7.48,10.9,6.86,2.87
NC(=O)[C@@H](Cc1c[nH]c2ccccc12)NC(=O)C1=C[C@@H](NS(=O)(=O)c2cccs2)[C@@H](O)[C@H](O)C1,-7.45,-5.57,-0.487,-5.51,-8.68
C=CC(=O)Nc1cccc(Oc2nc(Nc3ccc(N4CCN(C)CC4)cc3)ncc2Cl)c1,-40.7,2.44,-27,-55.3,-7.92
Cc1nc(CN2CCCC(c3[nH]ncc3Cc3ccccc3)C2)co1 (stereo not drawn),-1.87,-0.774,-6.49,-5.96,-3.71
Cc1noc([C@H]2CCN(C(=O)NCc3ccccc3)C[C@H]2NC(=O)C2CCOCC2)n1,-2.19,-5.57,-0.659,-3.53,-1.22
COc1cccc(-c2nc3cc(SC)ccc3cc2CN(C)Cc2ccno2)c1,-14.2,-9.41,-6.85,-25.2,-13.7
CC(C)(C)c1cc(CC2(NCc3ccc(Cl)cc3)COC2)no1,-5.83,-10.9,-4.67,-16.4,-7.25

SMILES,"activity change, negative = inhibition [1] [%]","activity change, negative = inhibition [2] [%]","activity change, negative = inhibition [3] [%]","activity change, negative = inhibition [4] [%]","activity change, negative = inhibition [5] [%]"
Cc1ccc(CN2CCCCC23Cc2ccccc2CNC3=O)cc1C (stereo not drawn),-9.86,-6.77,-10,-17.9,-10.7
Cc1ccc(Cn2c(=O)c3ccc(C(=O)NC4CCCC4)cc3n3c(=O)n(C)nc23)cc1,2.08,4.92,1.31,1.19,3.23
CCOC(=O)N1CCC(CN(Cc2ccc(Cl)cc2)Cc2ccc([N+](=O)[O-])s2)C1 (stereo not drawn),-5.15,-18,-2.54,-35.6,-6.78
CC1CCC(n2c3cnccc3c3cnc(Nc4ccc5c(n4)CCN(C(=O)CO)C5)nc32)CC1 (stereo not drawn),-4.99,5.16,8.18,-15.2,5.36
Cc1noc(C)c1[S+](=O)([O-])N1CCn2ncc(C(=O)NCc3ccc(Cl)nc3)c2C1,-11.3,-6.21,-6.93,-10.2,-2.17
Cn1cc(CN2C[C@@H]3C[C@H](C2)c2ccc(NC(=O)COc4ccccc4)c(=O)n2C3)c2ccccc21,-4.63,-1.28,-10.6,-10.6,-9.56
COc1cc(/C=C/C(=O)O[C@@H]2O[C@H](CO)[C@@H](O)[C@H](O)[C@H]2O)ccc1O,-1.99,-8.83,2.37,-17.3,-0.54
O=C(COc1cccc(-c2nnc3n2CCCC3)c1)NCc1ccccc1,-1.94,2,-17.6,-4.8,-1.8
COCCCNC(=O)N1Cc2c(sc3c2CCCC3)-n2cccc2C1c1cccc(C)c1 (stereo not drawn),-7.34,-0.707,-7.08,-10.7,-5.17
CC(C)(C)NC(=O)[C@H]1CC[C@H]2[C@@H]3CC[C@H]4NC(=O)CC[C@]4(C)[C@H]3CC[C@]12C,-2.66,9.1,-2.2,-16.4,-9.51
CCOC(=O)c1cnc2ccc(Br)cc2c1Nc1cccc(C(C)=O)c1,-16.6,0.35,2.95,0.316,-2.03
CC(O)CN1CC2(CCC1=O)CCN(Cc1cncn1C)CC2 (stereo not drawn),-4.29,-8.87,-4,-14,2.57
C=CCc1cc(-c2c(-c3ccccc3)ncn2CCOCCO)cc(OC)c1O,-5.25,-5.76,-4.77,-24.4,-8.69
C[C@H]1O[C@@H](O[C@H]2CC[C@@]3(C)C(CC[C@]4(C)C3CC=C3C5CC(C)(C)CC[C@]5(C(=O)O)CC[C@]34C(=O)O)C2(C)C)[C@H](O)[C@@H](O)[C@@H]1O (stereo partly drawn),-1.2,-1.4,0.513,-13.5,2.85
Cc1ccccc1Cn1nc2n(CCc3ccccc3)c(=O)c3ccccc3n2c1=O,-0.397,1.52,14.2,-2.65,-3.73
CC1(C(=O)NC2CCCCC2)Cn2c(cc3sccc32)C(=O)N1Cc1ccc(Cl)cc1 (stereo not drawn),-13.2,-0.467,-6.24,-7.77,-5.42
CC(C)OCCCNc1nc2c(S(=O)(=O)c3ccccc3)nnn2c2ccccc12,-5.22,2.75,-3.45,0.536,-8.05
NC[C@@H]1O[C@H](C23CC4CC(CC(C4)C2)C3)Cc2c1ccc(O)c2O,-10.9,12.4,-7.44,-12.1,4.31
Cc1cc2nn(CC(=O)Nc3cccc(Cl)c3)c(=O)n2c(Nc2ccc(F)cc2)n1,2.79,2.56,-3.39,-2.14,-1.19
